# This is one part of the list.
# Experiments:
# Test in all cases: glycan array binding signal (z-score within array); higher = stronger binding
# Conditions in all cases: glycan notation: IUPAC condensed, linker removed
# GlcNAc(b1-3)Man = biological target: GlcNAc(b1-3)Man
# In short: (§1)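 Arrays were curated from the Consortium for Functional Glycomics database, 3228 in total, and kept only where the protein sequence was available. Binding is expressed as a within-array Z-score. This score was averaged across arrays of the same protein sequence at different concentrations or buffers and across linkers, and negative values can be read as non-binding.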
# [1] = biological target: GlcNAc(b1-3)[GlcNAc(b1-4)][GlcNAc(b1-6)]GlcNAc
# In short: as §1
# [2] = biological target: GlcNAc(b1-3)[GlcNAc(b1-6)]Gal(b1-4)GlcNAc
# In short: as §1
# [3] = biological target: GlcNAc(b1-3)[GlcNAc(b1-6)]GalNAc
# In short: as §1
# [4] = biological target: GlcNAc(b1-4)Gal(b1-4)GlcNAc
# In short: as §1
# GlcNAc(b1-4)GlcNAc = biological target: GlcNAc(b1-4)GlcNAc
# In short: as §1
# [5] = biological target: GlcNAc(b1-4)GlcNAc(b1-4)GlcNAc
# In short: as §1
# [6] = biological target: GlcNAc(b1-4)GlcNAc(b1-4)GlcNAc(b1-4)GlcNAc(b1-4)GlcNAc
# In short: as §1
# [7] = biological target: GlcNAc(b1-4)GlcNAc(b1-4)GlcNAc(b1-4)GlcNAc(b1-4)GlcNAc(b1-4)GlcNAc
# In short: as §1
# [8] = biological target: GlcNAc(b1-4)[GlcNAc(b1-6)]GalNAc
# In short: as §1
# [9] = biological target: GlcNAc(b1-6)Gal(b1-4)GlcNAc
# In short: as §1
# GlcNAc(b1-6)GalNAc = biological target: GlcNAc(b1-6)GalNAc
# In short: as §1
# [10] = biological target: GlcNAc6S(b1-3)Gal(b1-4)GlcNAc
# In short: as §1
# Kdn(a2-3)Gal(b1-3)GalNAc = biological target: Kdn(a2-3)Gal(b1-3)GalNAc
# In short: as §1
# Kdn(a2-3)Gal(b1-3)GlcNAc = biological target: Kdn(a2-3)Gal(b1-3)GlcNAc
# In short: as §1
# Kdn(a2-3)Gal(b1-4)Glc = biological target: Kdn(a2-3)Gal(b1-4)Glc
# In short: as §1
# Kdn(a2-3)Gal(b1-4)GlcNAc = biological target: Kdn(a2-3)Gal(b1-4)GlcNAc
# In short: as §1
# [11] = biological target: Kdn(a2-3)Gal(b1-4)[Fuc(a1-3)]GlcNAc
# In short: as §1
# Kdn(a2-6)Gal(b1-4)GlcNAc = biological target: Kdn(a2-6)Gal(b1-4)GlcNAc
# In short: as §1
# [12] = biological target: Man(a1-2)Man(a1-2)Man(a1-3)Man
# In short: as §1
# [13] = biological target: Man(a1-2)Man(a1-2)Man(a1-6)[Man(a1-3)]Man
# In short: as §1
# Man(a1-2)Man(a1-3)Man = biological target: Man(a1-2)Man(a1-3)Man
# In short: as §1
# [14] = biological target: Man(a1-2)Man(a1-3)[Man(a1-2)Man(a1-6)]Man
# In short: as §1
# [15] = biological target: Man(a1-2)Man(a1-3)[Man(a1-2)Man(a1-6)]Man(a1-6)[Man(a1-2)Man(a1-2)Man(a1-3)]Man
# In short: as §1
# [16] = biological target: Man(a1-2)Man(a1-3)[Man(a1-2)Man(a1-6)]Man(a1-6)[Man(a1-2)Man(a1-2)Man(a1-3)]Man(b1-4)GlcNAc(b1-4)GlcNAc
# In short: as §1
# [17] = biological target: Man(a1-2)Man(a1-3)[Man(a1-6)]Man(a1-6)[Man(a1-2)Man(a1-3)]Man(b1-4)GlcNAc(b1-4)GlcNAc
# In short: as §1
# [18] = biological target: Man(a1-2)Man(a1-6)[Man(a1-3)]Man(a1-6)[Man(a1-2)Man(a1-2)Man(a1-3)]Man
# In short: as §1
# [19] = biological target: Man(a1-2)Man(a1-6)[Man(a1-3)]Man(a1-6)[Man(a1-2)Man(a1-2)Man(a1-3)]Man(b1-4)GlcNAc(b1-4)GlcNAc
# In short: as §1
# Man(a1-3)[Man(a1-6)]Man = biological target: Man(a1-3)[Man(a1-6)]Man
# In short: as §1
# [20] = biological target: Man(a1-3)[Man(a1-6)]Man(a1-6)[Man(a1-2)Man(a1-3)]Man(b1-4)GlcNAc(b1-4)GlcNAc
# In short: as §1
# [21] = biological target: Man(a1-3)[Man(a1-6)]Man(a1-6)[Man(a1-3)]Man
# In short: as §1
# [22] = biological target: Man(a1-3)[Man(a1-6)]Man(a1-6)[Man(a1-3)]Man(b1-4)GlcNAc(b1-4)GlcNAc
# In short: as §1
# [23] = biological target: Man(a1-3)[Man(a1-6)]Man(b1-4)GlcNAc(b1-4)GlcNAc
# In short: as §1
# [24] = biological target: Man(a1-3)[Man(a1-6)]Man(b1-4)GlcNAc(b1-4)[Fuc(a1-6)]GlcNAc
# In short: as §1
# Man(a1-6)Man = biological target: Man(a1-6)Man
# In short: as §1
# Man(b1-4)GlcNAc = biological target: Man(b1-4)GlcNAc
# In short: as §1
# MurNAc(b1-4)GlcNAc = biological target: MurNAc(b1-4)GlcNAc
# In short: as §1
# Neu5Ac(a2-3)Gal = biological target: Neu5Ac(a2-3)Gal
# In short: as §1
binder,measurement,setting,value
PX14367B-bvu-516-23-516 (Bacteroides vulgatus) (protein) LDTIPTTYVDAGSVFGKTGDAEKVLNGGWNYLMETFNSYANPGYGAMLRANDAMGSDVVLNSKYGFRTHNEFSAIYGKGGTNTLSWLLAYRVINDCNGVLDNIDAAEGTQADRNRIKGQALALRGFLYLHLASCYSFAIDKDPDAVCAPIYTQSTDETIAAEGKPASSVSEVYAQSINDLEEALELIPETYVRDAKHKIDNEVVLGILSRACLYARQWEKAKTYSDKLLAKDNYLMTESEYKAGFNSVDNKEWIWGHAQTNDQSNASYQFHYLDTTTKGSYYYSFNVDPYFRDLFEDGDYRKEMLFWATDPGADVESAAYVWMRNSKFRFRDIENQLGDIVLMRVAEIYLINAEAKAHLNDPDAINKLNDLKTARGAKTIHTNLSQQDLLETIWLERRKELWGEGFSLIDIIRNQQTVVRNAYPEGPIDYIYTDENGQTHTLKKKTQGHRFFNFPDKSAFCPNSKYYLYRITDSEELANKNLYKDHPKLSIYTK,glycan array binding signal (z-score),GlcNAc(b1-3)Man,-0.272
same,glycan array binding signal (z-score),[1],-0.212
same,glycan array binding signal (z-score),[2],-0.16
same,glycan array binding signal (z-score),[3],-0.258
same,glycan array binding signal (z-score),[4],-0.226
same,glycan array binding signal (z-score),GlcNAc(b1-4)GlcNAc,-0.329
same,glycan array binding signal (z-score),[5],-0.348
same,glycan array binding signal (z-score),[6],-0.245
same,glycan array binding signal (z-score),[7],-0.283
same,glycan array binding signal (z-score),[8],-0.238
same,glycan array binding signal (z-score),[9],-0.342
same,glycan array binding signal (z-score),GlcNAc(b1-6)GalNAc,-0.317
same,glycan array binding signal (z-score),[10],-0.249
same,glycan array binding signal (z-score),Kdn(a2-3)Gal(b1-3)GalNAc,-0.198
same,glycan array binding signal (z-score),Kdn(a2-3)Gal(b1-3)GlcNAc,-0.341
same,glycan array binding signal (z-score),Kdn(a2-3)Gal(b1-4)Glc,-0.366
same,glycan array binding signal (z-score),Kdn(a2-3)Gal(b1-4)GlcNAc,-0.299
same,glycan array binding signal (z-score),[11],-0.292
same,glycan array binding signal (z-score),Kdn(a2-6)Gal(b1-4)GlcNAc,-0.281
same,glycan array binding signal (z-score),[12],-0.326
same,glycan array binding signal (z-score),[13],-0.278
same,glycan array binding signal (z-score),Man(a1-2)Man(a1-3)Man,-0.313
same,glycan array binding signal (z-score),[14],-0.409
same,glycan array binding signal (z-score),[15],-0.216
same,glycan array binding signal (z-score),[16],-0.354
same,glycan array binding signal (z-score),[17],-0.362
same,glycan array binding signal (z-score),[18],-0.304
same,glycan array binding signal (z-score),[19],-0.351
same,glycan array binding signal (z-score),Man(a1-3)[Man(a1-6)]Man,-0.383
same,glycan array binding signal (z-score),[20],-0.156
same,glycan array binding signal (z-score),[21],-0.226
same,glycan array binding signal (z-score),[22],-0.332
same,glycan array binding signal (z-score),[23],-0.33
same,glycan array binding signal (z-score),[24],-0.299
same,glycan array binding signal (z-score),Man(a1-6)Man,-0.278
same,glycan array binding signal (z-score),Man(b1-4)GlcNAc,-0.351
same,glycan array binding signal (z-score),MurNAc(b1-4)GlcNAc,-0.283
same,glycan array binding signal (z-score),Neu5Ac(a2-3)Gal,-0.321

# Source: the supplement of paper PMC8728848
